This is an account of results in publication PMC12136788.

The list shows a part of the results.

T1: UNK ZnF1-3 (human, UniProt Q9C0B0 31-174)
T1 sequence: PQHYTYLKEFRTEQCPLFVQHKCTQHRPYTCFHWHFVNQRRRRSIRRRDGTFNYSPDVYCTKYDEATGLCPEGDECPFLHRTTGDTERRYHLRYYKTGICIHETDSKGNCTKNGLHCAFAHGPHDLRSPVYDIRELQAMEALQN

B1: chr1:127303955:127303956:-_ENSMUSG00000026341_ENSMUST00000027579|perfect_dup|FALSE|FALSE (ssRNA)
RNA: GGGAGUUCUACAGUCCGACGAUCUAUUACUGUACCCGUCAGCGUCCGCUCUCCUACUUGUCUUGAGGUCCAGGAUGCAGCUAAGGCAAGAACAGCCUGCACAGCAAUGUACAAGCCUGGAACAUUGAAGGAUUCAAACAUUAUCAACAGAGGAUUGAGCAUCA
B2: chr7:7679991:7679992:-_ENSG00000106399_ENST00000396682|hu_hu|hu_hu_hu_mus_False|8_48 (ssRNA)
RNA: GGGAGUUCUACAGUCCGACGAUCUGGGAUGAAUCUUUUCCAGCUUCCCCACGAAGCACACGGGCCGGUCGAUAUACUGUGGUAACAUGCCGGCGUUGACGCGCGCUUUGGGGAGCUGCAUUAUGUCCACCAUGAUUCUGCCGCCAACAGAGGAUUGAGCAUCA
B3: chr13:107726893:107726894:-_ENSMUSG00000042590_ENSMUST00000080856|mus_mus|FALSE|FALSE (ssRNA)
RNA: GGGAGUUCUACAGUCCGACGAUCCCUUUCCACUUGUCCACACGAAGCGGCGUUGGUUGCUUCCUCGUCCCCCACGCUCCUAGUCCACACGCUGCCGCCUACUGAUGCCGAAAACGGCUUCUAGGAACGCGCCAUGUUCCGCGUCAACAGAGGAUUGAGCAUCA
B4: chr2:78710632:78710633:+_ENSMUSG00000027011_ENSMUST00000028398|mus_mus|motif|central (ssRNA)
RNA: GGGAGUUCUACAGUCCGACGAUCUCGGGCUCUGGAGCGGCAGGGUCUCGCUGAUCUGCAUCUGAACUGCCACUGCUGGUGCGGGGGCUCUCAUCAUCCGACCUUUGCCUGUCACUGGACAUCUUGGUGAACUUAUCUCUGGGACAACAGAGGAUUGAGCAUCA
B5: chr2:216981417:216981418:+_ENSG00000079246_ENST00000392132|hu_hu|hu_hu_hu_mus_True|48_108 (ssRNA)
RNA: GGGAGUUCUACAGUCCGACGAUCCUGAUACUGAUCCUUGCCAGCAAGGGCAUUAUCAGUGCCAUCUGUGCCAUAGAGGACUAACGCAAUCUCAUCCUUGCUCUCCGAAAAUACCUGUCGUUGGACAAACAUAGUCAUCACUUUCAACAGAGGAUUGAGCAUCA
B6: chr4:148551591:148551592:-_ENSMUSG00000063077_ENSMUST00000060537|mus_hu|mus_mus_mus_hu_False|18_68 (ssRNA)
RNA: GGGAGUUCUACAGUCCGACGAUCACCUGACAAAAUUAAAUAUCCCUGUAAAUUAGACAAUAAGCAGCAGGUAACAAAGUCUUUGCUUUGGAAUAUGUGCCAGGAAAAGUCAUCUUGUAGACCCCAAUCAAGAGACAGUUCACACAACAGAGGAUUGAGCAUCA
B7: 95621333_95621453_120_5pUTR_ENSMUSG00000064210_ENSMUST00000071874|mouse|control|control (ssRNA)
RNA: GGGAGUUCUACAGUCCGACGAUCCUCCAUGUUCAGCAGGACCUUCCUAGUCAUCAUCUGCAUGUCUCCCGGAGACCGUCACUCGGCUGCUCUCGGCUCCGCUCGGCUCCGCUCGGCUCGGGCCGCAAGCUCCGCUCUGCCCUCCAACAGAGGAUUGAGCAUCA
B8: chr2:232320318:232320319:-_ENSG00000115053_ENST00000322723|hu_hu|hu_hu_hu_mus_True|18_48 (ssRNA)
RNA: GGGAGUUCUACAGUCCGACGAUCACUAUUAAAGUCUACAAAACCAAACCCUUUGGAAGAACCAGUUUCCCGAUCAGUGACUAUUCUUGCCCGAACGGAGCCCUCAAAUGAUUCUUUUAAUGUCUCUUCAGUGGUAUCCUCAGACAACAGAGGAUUGAGCAUCA
B9: 28770882_28772721_2572_CDS_ENSG00000108582_ENST00000225719|human|control|control (ssRNA)
RNA: GGGAGUUCUACAGUCCGACGAUCAACUGGAUUAUACCCUCGAGCAGAUGCUGUGAUUUUAUAAGUUCCUGGAACCAAGAGACGCCAGUAAUCUCCAGUUUUGUAAGUAGUCACUGGGUGAUUAAUCUCAGCAACACUAAUGGUCAACAGAGGAUUGAGCAUCA
B10: chr17:13115065:13115066:+_ENSMUSG00000068039_ENSMUST00000151287|mus_mus|motif|central (ssRNA)
RNA: GGGAGUUCUACAGUCCGACGAUCGAUACUUGCUCCAGAAGCUUUUGCAACAUGCUUCAGGUCUCGUUUUAAAACUCUCCGGACAGCCAUGGCACCAGCUUCCACAAAAUACUUGAGAUACAUAUCAUCAAUGCCACCAGUGGUCAACAGAGGAUUGAGCAUCA
B11: chr1:88248876:88248877:-_ENSMUSG00000026234_ENSMUST00000027438|perfect_dup|FALSE|FALSE (ssRNA)
RNA: GGGAGUUCUACAGUCCGACGAUCUUCCCUUUUAUUACAGGAAUUUAAAGCUUCUUUAGCGUCUUCGAAUGAAGCAAACUCUAUAAAUGCAUACCCUUUAGAUUUGCCAUUUUGGUUCUGGGGUACUUUGAUAAAAGUUGCUUUCAACAGAGGAUUGAGCAUCA
B12: chr1:89340274:89340275:+_ENSMUSG00000048000_ENSMUST00000174671|mus_mus|motif|central (ssRNA)
RNA: GGGAGUUCUACAGUCCGACGAUCUUGGCACGGCGUUCAAGGAACUGCUUGGCAAACUCCUUGGCCUCGGAAGUAUCUCCGGAAUAGGCCCUGGUAUAGUCAUGGACUUCAUAAGGAGACUCCACUUCUUUCAAGAAAGAAACACAACAGAGGAUUGAGCAUCA
B13: chr2:47387770:47387771:-_ENSG00000143933_ENST00000272298|hu_mus|hu_hu_hu_mus_True|38_38 (ssRNA)
RNA: GGGAGUUCUACAGUCCGACGAUCAAGGUUUAAGGACAAUGACAGUAAGAUAAGGGAAGAAAACAUGGAGGAAUGAAGUCCUAAUUACUAUACAUGCAUAUUUUUUUACAGUAGGGGGGGGGAACCUUUUACAGAUAAGUUACACAACAGAGGAUUGAGCAUCA
B14: chr1:39494447:39494448:+_ENSG00000168653_ENST00000372967|hu_mus|hu_hu_hu_mus_False|1_88 (ssRNA)
RNA: GGGAGUUCUACAGUCCGACGAUCGCACCGAGCGGCGUUCUUAUAGGGCUGUUCACCGCUUAGGAACAUAAAGUGCCGGUCCAGGCUGAUGCCCAGCUUUUUCUGUAUGUCAAGGAAAGGCAUGGCUCUGCAGUGCCCCCUUGACAACAGAGGAUUGAGCAUCA
B15: chr4:17845017:17845018:+_ENSG00000109805_ENST00000514176|hu_mus|hu_hu_hu_mus_False|1_28 (ssRNA)
RNA: GGGAGUUCUACAGUCCGACGAUCGCUCUCUUAACUUGUAUCUUCAUUAAGGAACUCUGCAAGGUUAAGUUUACUUUUCUGUAGCGCAGCUGUUUUGGCUCGUCUGGUAGUCUCAUCCUUCAUUUCUGAUGGUGGUUUGGAACUCAACAGAGGAUUGAGCAUCA
B16: chr15:57523399:57523400:+_ENSG00000140262_ENST00000343827|hu_hu|FALSE|FALSE (ssRNA)
RNA: GGGAGUUCUACAGUCCGACGAUCAUCUUGCAUAAAGAAAGUGCUAGCGAACAUACUGGUUGGUGGCUUAGGAGAUGGAUAACUAGGAGAUUCACGGUUGAAAUCAUCUGAAUUUGGGGAUGGUGCAUAUACCGUUUUCCCAUUCAACAGAGGAUUGAGCAUCA
B17: chr8:125590379:125590380:+_ENSMUSG00000000738_ENSMUST00000108868|mus_mus|motif|central (ssRNA)
RNA: GGGAGUUCUACAGUCCGACGAUCUCUGACUGCAUUUGGAACUAUAUGCUGUUUCAGUAACAAUCCGCUAAUACCUUCAAAGCGGGGGGUCAGUAUUCGCAAUAGCAAACUCUGAGGCGCGUGGCCUCCAGCCGCAGCCGGGCCCAACAGAGGAUUGAGCAUCA
B18: chr13:104848895:104848896:-_ENSMUSG00000021710_ENSMUST00000109315|mus_hu|FALSE|FALSE (ssRNA)
RNA: GGGAGUUCUACAGUCCGACGAUCAGGGAAAUAGUGUGGAUAUUUUAAGGUAAUUUUAUACUUGUCAUCAUCUGUCUUUUCUAAACUGUCAAUGAAAUCAUCAGGAAGAGCACCAAGUUCAGCCUUGGAAAAUACAAGGAAGGUCAACAGAGGAUUGAGCAUCA
B19: chr8:28149726:28149727:+_ENSMUSG00000031483_ENSMUST00000033873|mus_hu|motif|central (ssRNA)
RNA: GGGAGUUCUACAGUCCGACGAUCCUCCAGCUAUCAACCCACGGCAAUCAAUCCAGCAGUAUCAUUUAUAGAAUGAUUACGGAAACAAGAAUCAUUUCUCAGUUACAAAUGGGGUCAUUAAGCCCUUGGGGCUCUUUGAAAGUACAACAGAGGAUUGAGCAUCA
B20: chr9:91949571:91949572:+_ENSG00000187742_ENST00000375807|hu_hu|FALSE|FALSE (ssRNA)
RNA: GGGAGUUCUACAGUCCGACGAUCAAUGUGUUUUUCUUUGUUGUAGGAAGGAUCCGAAGAUAAAGCUUCAGAAGAUGGUAUACUAACAUUUUUAGGAUCUGCUGAUGAAGCAAUGGUCUUUAAGUUUAUCAUAGAAGUAACAUUCAACAGAGGAUUGAGCAUCA
B21: chr17:45747064:45747065:+_ENSG00000108424_ENST00000290158|hu_hu|hu_hu_hu_mus_True|18_38 (ssRNA)
RNA: GGGAGUUCUACAGUCCGACGAUCGCCCACAGUCCACGCUGUUGUGUCUCGAACAACUACACUGGGGUCUUUCAUUAGUUCUAUUAGGGUGGGCAUAGCCUGUAUAACUAAUGGUUUGAGCUGACUGGGCUCUGGUCCUUCCAACAACAGAGGAUUGAGCAUCA
B22: chr2:128501614:128501615:-_ENSMUSG00000014355_ENSMUST00000014499|mus_hu|motif|central (ssRNA)
RNA: GGGAGUUCUACAGUCCGACGAUCAGUCACAGGGGAAUCUCCUUUGGAGAGGCUUCUGAGAUGUGCUGUGAGGGAGCUGCGGGUGGCCACAUUCUGUGGGGUUCCCCCCUGUUCAGAGAACUUUAAAACAACAUUCUCUUCCUCCAACAGAGGAUUGAGCAUCA

The test deals with T1, UNK ZnF1-3. The experiment in a line: nsRBNS (natural sequence RNA bind-n-seq); RBNS binding buffer (assumed for nsRBNS): 25 mM Tris pH 7.5, 150 mM KCl, 3 mM MgCl2, 0.01% Triton X-100, 500 ug/ml BSA, 20 U/ml SUPERase-In, 4 C; UNK is unkempt and MSI1 is Musashi-1; names of the RNAs are library labels; protein concentration not given here; high values mean tight binding.
For B1, the binding signal is 0.988 enrichment R.
Under B2 stands 0.418 enrichment R; under B3, 0.673 enrichment R; under B4, 0.899 enrichment R.
As to B5, the binding signal was 0.662 enrichment R.
B6 returned a binding signal of 1.46 enrichment R.
For B7, the binding signal was 0.9 enrichment R.
As to B8, the binding signal is 0.879 enrichment R.
As for B9, the binding signal was 0.787 enrichment R.
As to B10, the binding signal was found to be 1.25 enrichment R.
In turn, B11 gave a binding signal of 0.792 enrichment R.
With B12, the binding signal stood at 0.731 enrichment R.
With B13, the binding signal stood at 1.95 enrichment R.
For B14, the binding signal came to 0.789 enrichment R.
With B15, the binding signal amounted to 0.386 enrichment R.
In the case of B16, the binding signal came to 1.23 enrichment R.
B17 showed a binding signal of 0.737 enrichment R.
The molecule B18 yielded a binding signal of 1.66 enrichment R.
As for B19, the binding signal worked out at 1.54 enrichment R.
The molecule B20 gave a binding signal of 0.841 enrichment R.
B21 displayed a binding signal of 0.59 enrichment R.
For B22, the binding signal came out at 1.2 enrichment R.
